# Screen size: about 420,000 compounds; about 64,000 (15%) were called active. Inconclusive means that the source gave no clear call. Such entries were picked first, then a sample of the others. The call rests on the fitted dose curve; in most records, active means well fitted inhibition curve with a large enough effect; inconclusive means small, poorly fitted or top-dose-only effect; inactive means flat fitted curve, though single readings scatter. Potencies of inconclusive entries are left out as doubtful fits.
# Assay: qHTS for Inhibitors of human tyrosyl-DNA phosphodiesterase 1 (TDP1): qHTS in cells in absence of CPT; further: nearly all actives have a fitted effect of over 55% in size
# Conditions: DT40 Tdp1-/- hTDP1 cells, no CPT, ATP luminescence, 48 h; activity change, negative = growth inhibition: at 46.2 µM (top of the series) unless noted
# In short: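 Chicken DT40 Tdp1-/- cells stably complemented with human TDP1 were seeded at 400 cells/well with DMSO in place of 20 nM camptothecin. After compound pinning, cells grew at least 48 hr at 37 °C; viability read by CellTiter-Glo luminescence.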
# On the % scale 0 is the no-effect control and ±100 the full control effect; potency means the concentration at half of the fitted maximal effect; tags describe the fitted curve by direction and shape.
SMILES,Potency,"activity change, negative = growth inhibition"
Cc1cc(C(F)(F)F)c2c(N)c(C(=O)NCc3ccc(Cl)cc3)sc2n1,"inconclusive [inhibitor, single point]",–
Clc1ccccc1N1CCN(c2ncnc3c2c(-c2ccccc2)cn3-c2ccccc2)CC1,active: 20.6 µM,–
CCOC(=O)N1CCN(C(=O)COC(=O)c2ccc(S(=O)(=O)N(CC)CC)cc2)CC1,–,inactive: 0.25%
Cc1noc(C)c1-c1ccc(C(=O)NCc2ccc(Cl)cc2)c2occc12,"inconclusive [inhibitor, single point]",–
Cc1cccc(C(=O)Nc2cccc(C(=O)N/N=C/c3ccc4c(c3)OCO4)c2)c1,active: 29.1 µM,–
O=S(=O)(Nc1nc2ccccc2nc1N1CCN(c2ccccc2F)CC1)c1ccc(Cl)cc1,–,inconclusive: -31.5% [inhibitor]
COc1ccc(C(=O)NNS(=O)(=O)c2ccccc2)cc1OC,–,inactive: 11.2%
COc1ccc(S(=O)(=O)NCC2CCCO2)cc1C(=O)O (configuration not stated),–,inactive: 0.894%
CCCC(=O)NC(=S)Nc1ccccc1N1CCOCC1,"inconclusive [inhibitor, single point]",–
Cc1nn(-c2ccccc2)c2c1C(c1ccc(F)cc1F)C(C#N)=C(N)O2 (configuration not stated),–,inactive: -23.7%
COc1ccc(CNC(=O)CN2C(=O)c3ccccc3S2(=O)=O)cc1,–,inactive: -24.4%
CCC(=O)NC(=S)Nc1ccc(NC(=O)c2ccco2)c(Cl)c1,–,inactive: -4.57%
COc1ccccc1CN1CC(C(=O)N2CCN(c3ccc(F)cc3)CC2)CC1=O (configuration not stated),–,inconclusive: -30.7% [inhibitor]
C[C@H]1CCCCO[C@H](CN(C)Cc2ccc(C(=O)O)cc2)[C@@H](C)CN([C@@H](C)CO)C(=O)c2cc(NS(=O)(=O)c3cn(C)cn3)ccc2O1,–,inconclusive: -12.9% [inhibitor]
O=C(Nc1ccc(N2CCCC2)c(S(=O)(=O)Nc2cccc(C(F)(F)F)c2)c1)c1cccs1,active: 14.6 µM,–
COc1ccccc1CNC(=O)c1ccccc1NC(=O)c1nsc2ccccc12,"inconclusive [inhibitor, single point]",–
CSCC[C@H](NC(=O)Cc1c(C)c2cc3c4c(oc3cc2oc1=O)CCCC4)C(=O)O,–,inactive: -9.79%
CC1(c2nnnn2-c2ccc3c(c2)OCCO3)CCC(=O)N1CCc1c[nH]c2ccccc12 (configuration not stated),"inconclusive [inhibitor, single point]",–
COc1ccc(-n2c(SCC(=O)Nc3nc(C)cs3)nnc2-c2ccoc2C)cc1,"inconclusive [inhibitor, single point]",–
O=C(N/N=C/c1cn(-c2ccccc2)nc1-c1cc2ccccc2o1)c1ccccc1Br,active: 14.6 µM,–
O=C(NCC(O)c1nc2ccccc2[nH]1)c1cc2ccccc2[nH]1 (configuration not stated),–,inactive: -18.2%
CCOc1ccc(N2C(=O)C3C(c4ccc(O)cc4)NC(CCSC)(C(=O)OC)C3C2=O)cc1 (configuration not stated),–,inactive: -13.4%
CCCCNC(=O)c1nc(C2CCNCC2)oc1-c1ccccc1,"inconclusive [inhibitor, partial curve]",–
CCCOP(=O)(OCCC)c1c([N+](=O)[O-])cc(C(F)(F)F)cc1[N+](=O)[O-],active: 18.4 µM,–

SMILES,Potency,"activity change, negative = growth inhibition"
O=[N+]([O-])c1ccc2[nH]c3nc4ccccc4nc3c2c1,–,inactive: -24.5%
COc1ccccc1/C=N/n1c(N)c(S(=O)(=O)c2cccs2)c2nc3ccccc3nc21,–,inactive: 30.8%
O=C1COc2ccccc2N1Cc1c(F)cccc1Cl,"inconclusive [inhibitor, single point]",–
O=C1c2ccc(-c3ccc(Cl)c(C(F)(F)F)c3)cc2S(=O)(=O)c2cccc(C(=O)N3CCN(c4ccc(Cl)cn4)CC3)c21,active: 13 µM,–
COC(=O)c1c(NC(=O)CN2CCOCC2)sc2c1CCC(C)C2 (configuration not stated),"inconclusive [inhibitor, partial curve]",–
O=C(NCc1ccccc1)C1CCCN(c2nc3ccsc3c(=O)s2)C1 (configuration not stated),–,inactive: -22.8%
Cc1cccc(/C=N\N=C\c2cccc(C)c2)c1,"inconclusive [inhibitor, single point]",–
Clc1cccc(-n2ncc3c(NC4CCCCC4)ncnc32)c1,active: 18.4 µM,–
Cc1nc2ccc(Br)cn2c1NC(C)(C)C,–,inactive: -22.9%
CCOc1cccc(C2/C(=C(/O)c3ccc4c(c3)CC(C)O4)C(=O)C(=O)N2CCCn2ccnc2)c1 (configuration not stated),–,inactive: 2.14%
O=C(NC1CCCCCC1)c1cc(S(=O)(=O)N2CCOCC2)ccc1F,–,inactive: -3.59%
CCOc1ccc(-c2nnc(SCC(=O)NC3CCCC3)nc2-c2ccc(OCC)c(OC)c2)cc1OC,"inconclusive [inhibitor, single point]",–
CC1(C(=O)Nc2cnc3ccccc3c2)CCN1Cc1ccc2ccccc2c1 (configuration not stated),"inconclusive [inhibitor, single point]",–
CC1CCN(c2nc3nonc3nc2N2CCC(C)CC2)CC1,"inconclusive [inhibitor, single point]",–
COc1cccc(C(=O)N2CCN(Cc3ccccc3[N+](=O)[O-])CC2)c1,"inconclusive [inhibitor, partial curve]",–
CC1CCCCC12NC(=O)N(CC(=O)c1ccc(Cl)s1)C2=O (configuration not stated),–,inactive: -3.43%
O=C(Nc1ccccc1F)c1nc(S(=O)(=O)Cc2ccccc2F)ncc1Cl,active: 0.92 µM,–
O=C(NCCCC1CCCC1)C1CCC(=O)N(Cc2cccc(C(F)(F)F)c2)C1 (configuration not stated),"inconclusive [inhibitor, single point]",–
CC(C)Nc1cc(N2CCCC2)ccc1[N+](=O)[O-],–,inactive: -15.8%
Cc1ccc(NCC(=O)Nc2ccc(Br)cc2)cc1C,"inconclusive [inhibitor, single point]",–
COc1cc2cnc(-c3ccccc3)c(C(=O)c3ccc(OCc4ccccc4)cc3)c2cc1OC,"inconclusive [inhibitor, single point]",–
O=C(CCN1C(=O)c2ccccc2S1(=O)=O)NCc1ccccc1,–,inactive: 4.57%
Cc1c(C(=O)Nc2ccc3c(c2)OCCO3)sc2nc(-c3ccccc3)cn12,active: 5.8 µM,–
CCC(=O)Nc1ccc(C(=O)NNC(=O)c2cc(OC)c(OC)c(OC)c2)cc1,–,inactive: -27.1%

SMILES,Potency,"activity change, negative = growth inhibition"
CC(C)(C)OC(=O)N1CCC(c2c(C(=O)NCCN3CCC(Cc4ccccc4)CC3)cnn2-c2cccc(Cl)c2)CC1,active: 3.66 µM,–
O=C(Nc1ccc(Cl)cc1)Nc1cccnc1,"inconclusive [inhibitor, single point]",–
Cc1cc(Br)c(NC(=O)COn2nnc3ccc(S(C)(=O)=O)cc32)c(Br)c1,–,inactive: -29.2%
COC(=O)c1ccc(Cl)c(NC(=O)CN(c2ccc(OC)cc2)S(=O)(=O)c2ccccc2)c1,"inconclusive [inhibitor, single point]",–
COc1ccc2[nH]c(C)c(C(=O)CN(C)CC(OC)OC)c2c1,"inconclusive [inhibitor, single point]",–
CCCNC(=O)c1onc(CSc2cccc(OC)c2)c1C(=O)NCCC,–,inactive: -23%
Cc1cccc(N2C(=O)C(O)=C(C(=O)c3cccs3)C2c2cccc(Oc3ccccc3)c2)n1 (configuration not stated),"inconclusive [inhibitor, single point]",–
CC1=NN(C(=O)CCc2ccccc2)C(O)(c2ccncc2)C1 (configuration not stated),–,inactive: 16.8%
CSc1nnc(-c2ccncc2)n1/N=C/c1cn(-c2ccccc2)nc1-c1ccc(Cl)cc1,"inconclusive [inhibitor, single point]",–
CC(=O)N1CCc2c(sc(NC(=O)C3CCCN3S(=O)(=O)c3cccs3)c2C#N)C1 (configuration not stated),"inconclusive [inhibitor, single point]",–
COc1ccc([N+](=O)[O-])cc1NS(=O)(=O)c1cc(C(=O)NCc2cccnc2)ccc1Cl,–,inactive: -12.5%
COc1cccc(Nc2ncc3nc(-c4cccs4)c(=O)n(-c4ccccc4)c3n2)c1,"inconclusive [inhibitor, single point]",–
CC(C)C[C@@H](CN1CCC[C@H]1CN1C(=O)C(=O)NC[C@@H]1Cc1ccc(O)cc1)N1C[C@H](Cc2ccccc2)N(CC2CCCCCC2)C(=O)C1=O,"inconclusive [inhibitor, single point]",–
COc1ccc(C2c3c(oc4ccccc4c3=O)C(=O)N2c2ccc(C)cn2)cc1OC (configuration not stated),"inconclusive [inhibitor, partial curve]",–
O=C(NCCCO)/C(=C\c1ccco1)NC(=O)c1ccco1,–,inactive: -1.32%
Cc1cccc(N2CCCC2=Nc2ccc(Br)cc2C#N)c1,–,inactive: -24.6%
COC(=O)C1(C(F)(F)F)C2C=CC(C2)N1S(=O)(=O)c1ccc(C)cc1 (configuration not stated),active: 20.6 µM,–
COc1ccccc1CN1CCC(n2nccc2NC(=O)CCCc2ccccc2)CC1,"inconclusive [inhibitor, single point]",–
COc1ccc(OC)c(-c2csc(NC(=O)Cc3ccccc3OC)n2)c1,"inconclusive [inhibitor, partial curve]",–
O=C(NCCCN1CCN(c2ccccc2)CC1)c1nnc(Cc2c(F)cccc2Cl)o1,active: 20.6 µM,–
CCCCC[C@H](O)/C=C/[C@H]1[C@H](O)CC(=O)[C@@H]1C/C=C\CCCC(=O)O,"inconclusive [inhibitor, single point]",–
Cc1ccc(Cc2c(-c3cccc(Cl)c3)nc3ccc(Br)cn23)cc1,"inconclusive [inhibitor, single point]",–
O=C(NCc1ccc(Cl)cc1)C(=O)NCC(c1cccs1)S(=O)(=O)c1ccc(Cl)cc1 (configuration not stated),"inconclusive [inhibitor, single point]",–
CCNc1ccc(S(=O)(=O)N2CCCCC2)cn1,–,inconclusive: -8.44% [inhibitor]

# Source: PubChem BioAssay AID686978 (National Center for Advancing Translational Sciences (NCATS), 2013)
